From the supplement of paper PMC8728848
The list shows a part of the results.

Columns and labels:
Assay in all cases: glycan array binding signal (z-score within array); higher = stronger binding
Conditions in all cases: glycan notation: IUPAC condensed, linker removed
[1] = biological target: GlcNAc(b1-2)Gal(b1-3)GalNAc
How it was run: (§1)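 Glycan array data were curated from 3228 arrays in the Consortium for Functional Glycomics database and kept only where the protein sequence was available. Glycan names were converted to IUPAC-condensed notation, and columns mapping to the same glycan were averaged. The binding signal is a within-array Z-score, averaged across arrays of the same protein sequence at different concentrations or buffers and across linkers. Negative Z-scores can be read as non-binding.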

[2] = biological target: GlcNAc(b1-2)Man(a1-3)[GlcNAc(b1-2)Man(a1-6)]Man(b1-4)GlcNAc(b1-4)GlcNAc
How it was run: as §1

[3] = biological target: GlcNAc(b1-2)Man(a1-3)[GlcNAc(b1-2)Man(a1-6)]Man(b1-4)GlcNAc(b1-4)[Fuc(a1-6)]GlcNAc
How it was run: as §1

[4] = biological target: GlcNAc(b1-2)Man(a1-3)[GlcNAc(b1-4)][GlcNAc(b1-2)Man(a1-6)]Man(b1-4)GlcNAc(b1-4)GlcNAc
How it was run: as §1

[5] = biological target: GlcNAc(b1-2)Man(a1-3)[GlcNAc(b1-4)][GlcNAc(b1-2)Man(a1-6)]Man(b1-4)GlcNAc(b1-4)[Fuc(a1-6)]GlcNAc
How it was run: as §1

[6] = biological target: GlcNAc(b1-2)[GlcNAc(b1-4)]Man(a1-3)[GlcNAc(b1-2)Man(a1-6)]Man(b1-4)GlcNAc(b1-4)GlcNAc
How it was run: as §1

[7] = biological target: GlcNAc(b1-2)[GlcNAc(b1-4)]Man(a1-3)[GlcNAc(b1-4)][GlcNAc(b1-2)Man(a1-6)]Man(b1-4)GlcNAc(b1-4)GlcNAc
How it was run: as §1

[8] = biological target: GlcNAc(b1-2)[GlcNAc(b1-4)]Man(a1-3)[GlcNAc(b1-4)][GlcNAc(b1-2)[GlcNAc(b1-6)]Man(a1-6)]Man(b1-4)GlcNAc(b1-4)GlcNAc
How it was run: as §1

[9] = biological target: GlcNAc(b1-2)[GlcNAc(b1-4)]Man(a1-3)[GlcNAc(b1-4)][GlcNAc(b1-2)[GlcNAc(b1-6)]Man(a1-6)]Man(b1-4)GlcNAc(b1-4)[Fuc(a1-6)]GlcNAc
How it was run: as §1

[10] = biological target: GlcNAc(b1-2)[GlcNAc(b1-6)]Man(a1-6)[GlcNAc(b1-2)Man(a1-3)]Man(b1-4)GlcNAc(b1-4)GlcNAc
How it was run: as §1

[11] = biological target: GlcNAc(b1-2)[GlcNAc(b1-6)]Man(a1-6)[GlcNAc(b1-2)Man(a1-3)]Man(b1-4)GlcNAc(b1-4)[Fuc(a1-6)]GlcNAc
How it was run: as §1

[12] = biological target: GlcNAc(b1-2)[GlcNAc(b1-6)]Man(a1-6)[GlcNAc(b1-4)][GlcNAc(b1-2)Man(a1-3)]Man(b1-4)GlcNAc(b1-4)GlcNAc
How it was run: as §1

GlcNAc(b1-3)Fuc = biological target: GlcNAc(b1-3)Fuc
How it was run: as §1

GlcNAc(b1-3)Gal = biological target: GlcNAc(b1-3)Gal
How it was run: as §1

[13] = biological target: GlcNAc(b1-3)Gal(b1-3)GalNAc
How it was run: as §1

GlcNAc(b1-3)Gal(b1-4)Glc = biological target: GlcNAc(b1-3)Gal(b1-4)Glc
How it was run: as §1

[14] = biological target: GlcNAc(b1-3)Gal(b1-4)GlcNAc
How it was run: as §1

[15] = biological target: GlcNAc(b1-3)Gal(b1-4)GlcNAc(b1-2)Man(a1-3)[GlcNAc(b1-3)Gal(b1-4)GlcNAc(b1-2)Man(a1-6)]Man(b1-4)GlcNAc(b1-4)GlcNAc
How it was run: as §1

[16] = biological target: GlcNAc(b1-3)Gal(b1-4)GlcNAc(b1-2)Man(a1-3)[GlcNAc(b1-3)Gal(b1-4)GlcNAc(b1-2)Man(a1-6)]Man(b1-4)GlcNAc(b1-4)[Fuc(a1-6)]GlcNAc
How it was run: as §1

[17] = biological target: GlcNAc(b1-3)Gal(b1-4)GlcNAc(b1-2)[GlcNAc(b1-3)Gal(b1-4)GlcNAc(b1-6)]Man(a1-6)[GlcNAc(b1-3)Gal(b1-4)GlcNAc(b1-2)Man(a1-3)]Man(b1-4)GlcNAc(b1-4)GlcNAc
How it was run: as §1

[18] = biological target: GlcNAc(b1-3)Gal(b1-4)GlcNAc(b1-3)Gal(b1-4)GlcNAc
How it was run: as §1

[19] = biological target: GlcNAc(b1-3)Gal(b1-4)GlcNAc(b1-3)Gal(b1-4)GlcNAc(b1-2)Man(a1-3)[GlcNAc(b1-3)Gal(b1-4)GlcNAc(b1-3)Gal(b1-4)GlcNAc(b1-2)Man(a1-6)]Man(b1-4)GlcNAc(b1-4)GlcNAc
How it was run: as §1

B1: LecB PA14 (Pseudomonas aeruginosa) (protein)
chain: MATQGVFTLPANTQFGVTAFANSAGTQTVNVQVNNETVATFTGQSTNNAIIGSKVLNSGGGGKVQILVSVNGRSSDLVSAQVILANELNFALVGSEDSTDNDYNDAVVVINWPLG
glycan array binding signal (z-score) [1]: -0.299 | glycan array binding signal (z-score) [2]: -0.277 | glycan array binding signal (z-score) [3]: -0.186 | glycan array binding signal (z-score) [4]: -0.629 | glycan array binding signal (z-score) [5]: -0.624 | glycan array binding signal (z-score) [6]: -0.118 | glycan array binding signal (z-score) [7]: -0.008 | glycan array binding signal (z-score) [8]: 0.175 | glycan array binding signal (z-score) [9]: 0.121 | glycan array binding signal (z-score) [10]: -0.539 | glycan array binding signal (z-score) [11]: -0.125 | glycan array binding signal (z-score) [12]: -0.944 | glycan array binding signal (z-score) (GlcNAc(b1-3)Fuc): 0.345 | glycan array binding signal (z-score) (GlcNAc(b1-3)Gal): -0.454 | glycan array binding signal (z-score) [13]: -0.584 | glycan array binding signal (z-score) (GlcNAc(b1-3)Gal(b1-4)Glc): 0.122 | glycan array binding signal (z-score) [14]: -0.289 | glycan array binding signal (z-score) [15]: -0.297 | glycan array binding signal (z-score) [16]: 0.466 | glycan array binding signal (z-score) [17]: -0.571 | glycan array binding signal (z-score) [18]: -0.457 | glycan array binding signal (z-score) [19]: 0.43
